# Results from the supplement of paper PMC4166925.
# ± gives the standard deviation of the averaged measurements. In all, about 33,000 sequences were measured (“E-score (dimensionless, -0.5 to 0.5)”: median about -0.049, highest 2% from about 0.37 on). Some of the results follow.
# System: T1, PmTbr T-box DNA-binding domain (GST fusion)
# T1 sequence: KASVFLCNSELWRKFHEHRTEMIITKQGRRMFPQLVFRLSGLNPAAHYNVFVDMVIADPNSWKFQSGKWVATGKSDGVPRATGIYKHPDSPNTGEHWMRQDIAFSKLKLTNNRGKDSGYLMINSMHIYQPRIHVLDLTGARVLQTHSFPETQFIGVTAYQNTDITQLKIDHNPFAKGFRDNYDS
# Experiment: PBM E-score of 8-mer (E-score (dimensionless, -0.5 to 0.5)); Tbr is Tbrain of the sea star Patiria miniata (Pm) or the sea urchin Strongylocentrotus purpuratus (Sp); higher = stronger binding preference; most listed sequences are background and not binding sites
# Conditions: the construct has about 5 more residues each side
# Protocol: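 Universal protein-binding microarray (Agilent AMADID 016060, 60-bp probes with a 35-bp variable region) incubated with 200 nM GST-fused Patiria miniata Tbr T-box DNA-binding domain (residues 272-466) in PBS pH 7.5. Scored for every ungapped 8-mer (given with its reverse complement) by the Universal PBM Analysis Suite as E-score (modified Wilcoxon-Mann-Whitney enrichment, range -0.5 to 0.5; >0.45 counts as bound) and Z-score of median probe intensity. Two replicate arrays (datasets 1 and 2).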
# 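Further: 200 nM protein in PBS on universal arrays averaged over duplicate arrays.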
row,Sequence,PBM E-score of 8-mer
1,CATCTTCG,-0.00766 ± 0.071
2,GTCACTGA,0.102 ± 0.0023
3,ACATGCCT,-0.23 ± 0.07
4,ATTCTGAG,-0.131 ± 0.012
5,TATTGTCA,0.247 ± 0.063
6,ATTTCACA,0.426 ± 0.013
7,ACCGCCGA,0.013 ± 0.028
8,CTTACAAA,-0.206 ± 0.034
9,CGCGATCC,0.174 ± 0.033
10,GACAATGC,0.141 ± 0.0033
11,GAGATCCA,0.0448 ± 0.055
12,ACACGAAA,0.00596 ± 0.031
13,ACGGTGCG,0.309 ± 0.042
14,GTCAATTA,0.0505 ± 0.064
15,TAGTTATA,-0.136 ± 0.053
16,AGAGATTC,-0.0734 ± 0.013
17,GGCAACAA,0.05 ± 0.0035
18,AATTCCGA,-0.0769 ± 0.11
19,AGATCTGG,-0.0878 ± 0.0096
20,CAGTCAGA,-0.202 ± 0.038
21,CCGTATAA,-0.051 ± 0.054
22,CCGGGGGC,-0.17 ± 0.076
23,ACAGAGCT,-0.185 ± 0.011
24,GACTATAC,-0.22 ± 0.0026
25,ACGTTTTA,-0.0207 ± 0.11

row,Sequence,PBM E-score of 8-mer
1,TACCTTAA,-0.0928 ± 0.11
2,ACAAATAG,0.0659 ± 0.036
3,CCCGTTTA,-0.0803 ± 0.023
4,CACCCCAA,0.212 ± 0.061
5,AAATCGTT,-0.182 ± 0.0032
6,CCCTGCCA,0.0151 ± 0.031
7,CCAGGCAG,-0.0508 ± 0.1
8,GGTATTGA,-0.0741 ± 0.0033
9,AATACACT,-0.0504 ± 0.12
10,GCCTTTAC,-0.163 ± 0.021
11,GGTCTATA,-0.295 ± 0.034
12,GTTGGGCA,0.0207 ± 0.14
13,CTTGCCAC,0.285 ± 0.0097
14,AGTGCTTA,-0.00539 ± 0.017
15,AGTGGGCC,-0.0657 ± 0.11
16,GTGTAAAA,0.341 ± 0.081
17,CTCCTATC,-0.0475 ± 0.024
18,ATGCGGGA,-0.203 ± 0.036
19,ATTTTAAA,-0.142 ± 0.01
20,AAGTAGGT,0.196 ± 0.023
21,CGGATTGC,-0.0928 ± 0.0017
22,AGCGCAAC,-0.048 ± 0.051
23,CACTTCAC,0.396 ± 0.012
24,ATGTTCTG,-0.239 ± 0.034
25,CCATTCCG,-0.0325 ± 0.04

row,Sequence,PBM E-score of 8-mer
1,TCAAACAA,-0.149 ± 0.021
2,CTTTGAAC,-0.124 ± 0.068
3,AAGTCAAG,-0.0506 ± 0.0047
4,GCATTAGC,0.2357 ± 0.0015
5,CGGTCGAA,-0.207 ± 0.015
6,ATTCTCCC,-0.298 ± 0.045
7,GGACCTCC,-0.342 ± 0.023
8,CAGTCTGA,-0.167 ± 0.034
9,GGGTACCA,0.0554 ± 0.01
10,ATCGCCTA,0.126 ± 0.056
11,ACAGAGTA,0.0142 ± 0.0068
12,GAGAAATA,0.0157 ± 0.063
13,AATAAGGC,-0.103 ± 0.017
14,ATCCAGAA,-0.124 ± 0.038
15,ATTAAGAA,-0.301 ± 0.0034
16,AGACAACG,0.0232 ± 0.016
17,CGGATGAG,-0.151 ± 0.044
18,ACGGTAGA,-0.125 ± 0.024
19,AATTATAC,-0.0508 ± 0.085
20,AAAAGAGA,0.11 ± 0.028
21,CCTACACA,-0.00547 ± 0.098
22,ACCCATCG,0.0896 ± 0.017
23,ACTTTGCG,0.156 ± 0.028
24,ATGAGCAG,-0.0322 ± 0.034
25,ACCATCCG,-0.186 ± 0.022

row,Sequence,PBM E-score of 8-mer
1,TCAGCTGA,-0.191 ± 0.084
2,ATGCCGGG,-0.225 ± 0.029
3,AACTTTGC,0.12 ± 0.062
4,CGAGTTTA,0.157 ± 0.045
5,GTTGCTTA,-0.148 ± 0.055
6,AACATCCG,-0.0527 ± 0.016
7,GCGTGTTA,0.336 ± 0.036
8,AAACCGAA,-0.0831 ± 0.077
9,CCAAATTA,-0.086 ± 0.049
10,CCCTAACG,-0.0582 ± 0.031
11,CCACTTTA,0.0964 ± 0.014
12,CTGAGGTA,-0.0413 ± 0.017
13,ACACATAT,0.386 ± 0.0052
14,CACTAAGG,0.0849 ± 0.023
15,CAATGACC,-0.18309 ± 5.7e-05
16,GCGTGATA,0.329 ± 0.01
17,AATAGCCG,-0.0594 ± 0.04
18,AAAGTGCC,0.199 ± 0.067
19,CATTGTTC,-0.175 ± 0.0042
20,GCTATTGA,0.00989 ± 0.062
21,ACAGTGCA,-0.1063 ± 0.00079
22,CACGGATA,-0.0652 ± 0.11
23,ACTTCATA,-0.0573 ± 0.087
24,CTGCCAGC,0.0368 ± 0.011
25,CCAGAGTA,-0.0866 ± 0.053

row,Sequence,PBM E-score of 8-mer
1,ACTGCAAG,-0.124 ± 0.14
2,GGAGAGTA,-0.153 ± 0.048
3,TCTTAGAA,-0.0982 ± 0.088
4,CACTTATA,0.193 ± 0.0034
5,ACTTTTGA,-0.0571 ± 0.043
6,ACCATCGC,0.216 ± 0.014
7,ACAATACG,-0.058 ± 0.035
8,ACACACTG,0.138 ± 0.019
9,CGACTTCA,-0.0422 ± 0.013
10,AGGATTGG,-0.109 ± 0.04
11,CCCAACCG,-0.107 ± 0.006
12,CACAAGTA,0.065 ± 0.01
13,AGAAGCAA,-0.207 ± 0.0053
14,AACCGCTC,-0.157 ± 0.039
15,AGAGATCG,0.0683 ± 0.06
16,CATGTAAG,0.0322 ± 0.026
17,CTAAGGCC,-0.196 ± 0.045
18,AATCCACT,-0.272 ± 0.041
19,GCCTCGCA,0.143 ± 0.014
20,CCGAGGAA,-0.297 ± 0.015
21,ACGTGTCT,0.198 ± 0.0036
22,AATATAGG,-0.1 ± 0.024
23,CGTGGGAC,0.0231 ± 0.021
24,CTGGCTCA,0.0686 ± 0.056
25,TCGAACAA,-0.125 ± 0.059

row,Sequence,PBM E-score of 8-mer
1,ACATCTGG,0.0376 ± 0.0026
2,GAAGGAGC,-0.195 ± 0.033
3,GAATTGAC,0.131 ± 0.032
4,ATGCCTTG,-0.208 ± 0.0088
5,CCAGGGCG,-0.0636 ± 0.049
6,CTCCACGA,-0.0914 ± 0.033
7,AAAGAGCG,-0.0458 ± 0.095
8,AACAAGCC,0.0289 ± 0.082
9,GCCCCACA,0.0796 ± 0.065
10,GCGGGTCC,-0.0761 ± 0.13
11,GCTATTCC,-0.164 ± 0.054
12,CGTCCTTA,-0.252 ± 0.0069
13,ATCTATAG,-0.192 ± 0.014
14,CTGATCCA,-0.263 ± 0.021
15,ACATCAAG,0.0617 ± 0.036
16,CGCGCTCC,0.0854 ± 0.0011
17,GAGTGCTA,0.342 ± 0.0098
18,AACTCCGG,-0.0239 ± 0.0016
19,AGTTTGTC,0.137 ± 0.042
20,TGAACCAA,-0.038 ± 0.008
21,AAATCAAA,-0.227 ± 0.005
22,ATCGCTAC,0.172 ± 0.022
23,ACGGTATG,-0.054 ± 0.044
24,AGTTACCG,-0.00622 ± 0.025
25,CATATTCG,0.0178 ± 0.033

row,Sequence,PBM E-score of 8-mer
1,GCGTATAA,-0.0863 ± 0.039
2,GTAGACAA,-0.0161 ± 0.17
3,GGACTTGA,-0.145 ± 0.015
4,CGGACGAA,-0.0167 ± 0.087
5,ACGGGCCC,-0.139 ± 0.0076
6,ATTAAACC,-0.166 ± 0.018
7,ATTCTTGG,-0.232 ± 0.03
8,AGACCCCT,-0.245 ± 0.086
9,ATCAATGA,-0.141 ± 0.079
10,GGCCCACC,-0.179 ± 0.059
11,ACGTACTA,-0.101 ± 0.043
12,CGATTCTC,0.155 ± 0.055
13,GAGGGGAA,-0.0558 ± 0.037
14,CCTACTCC,-0.208 ± 0.019
15,GACCCGCA,-0.0994 ± 0.029
16,GCGCTCCA,-0.146 ± 0.046
17,ATCCTCCG,-0.23107 ± 0.00014
18,GACAATAA,-0.0138 ± 0.14
19,CTAGTAAC,-0.194 ± 0.023
20,CGACACTC,0.353 ± 0.012
21,ATCGTCGC,0.0934 ± 0.014
22,CAGCGCGG,0.161 ± 0.046
